{
  "source": "PubChem BioAssay AID588591",
  "about": "(National Center for Advancing Translational Sciences (NCATS), 2011)",
  "note": "Screen size: about 390,000 compounds; about 4,700 (1.2%) were called active. Inconclusive results, whose numbers are uncertain, are shown with a selection of clear calls. The call rests on the fitted dose curve; in most records, active means well fitted inhibition curve with a large enough effect; inconclusive means small, poorly fitted or top-dose-only effect, or another doubt; inactive means no such curve, though single readings can be large or run the other way. Potencies of inconclusive entries are doubtful fits and often do not repeat. On the % scale 0 is the no-effect control and ±100 the full control effect; potency means the concentration at half of the fitted maximal effect; tags describe the fitted curve by direction and shape.",
  "data": [
    {"target": "DNA polymerase eta (Homo sapiens) (UniProt Q9Y253)", "sequence (Q9Y253 whole entry, looked up)": "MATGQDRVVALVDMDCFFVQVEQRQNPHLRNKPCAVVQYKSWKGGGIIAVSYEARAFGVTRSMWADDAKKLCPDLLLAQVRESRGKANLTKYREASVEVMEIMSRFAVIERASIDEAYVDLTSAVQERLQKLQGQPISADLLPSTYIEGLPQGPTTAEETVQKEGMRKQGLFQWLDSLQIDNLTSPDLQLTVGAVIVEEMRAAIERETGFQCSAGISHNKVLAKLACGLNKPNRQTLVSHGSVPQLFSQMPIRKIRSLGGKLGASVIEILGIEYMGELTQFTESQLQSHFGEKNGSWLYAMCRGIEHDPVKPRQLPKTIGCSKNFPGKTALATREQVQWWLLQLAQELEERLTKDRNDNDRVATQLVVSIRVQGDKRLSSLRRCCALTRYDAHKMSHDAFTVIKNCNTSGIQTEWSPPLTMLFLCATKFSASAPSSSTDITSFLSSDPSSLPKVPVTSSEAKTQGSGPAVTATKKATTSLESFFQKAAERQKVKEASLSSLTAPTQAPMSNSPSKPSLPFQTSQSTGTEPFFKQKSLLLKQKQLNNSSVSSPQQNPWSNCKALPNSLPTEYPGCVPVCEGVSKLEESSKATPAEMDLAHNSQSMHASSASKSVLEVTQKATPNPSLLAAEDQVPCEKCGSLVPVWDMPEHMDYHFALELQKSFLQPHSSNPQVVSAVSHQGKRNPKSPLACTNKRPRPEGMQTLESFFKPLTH", "assay": "qHTS for Inhibitors of Polymerase Eta", "details": "recombinant Pol eta, fluorescent DNA replication assay; series mostly up to 114 µM; activity change, negative = inhibition: at the top concentration", "method_in_brief": "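Fluorescent replication assay: 50 nM final substrate added after a 15 min room-temperature compound preincubation with 10 nM enzyme. Signal taken at 0 min and again at 10 min.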", "values": [
      {"smiles": "CC(=O)n1nc(-c2ccco2)nc1SCc1ccccc1", "activity change, negative = inhibition": "inactive: -4.08%"},
      {"smiles": "COc1cccc(CNc2ccc3[nH]c(=O)[nH]c3c2)c1OCc1ccccc1Cl", "Potency": "inconclusive: 100 µM [inhibitor, partial curve, poor fit]"},
      {"smiles": "Cc1nc2nc(NC(=O)c3ccc(C(C)(C)C)cc3)[nH]n2c(=O)c1Cl", "Potency": "inconclusive: 100 µM [inhibitor, single point]"},
      {"smiles": "COc1cc(/C=N\\Nc2ccc([N+](=O)[O-])cc2)ccc1OCC(=O)Nc1ccc(C)c(C)c1", "Potency": "inconclusive: 6.31 µM [inhibitor, partial curve]"},
      {"smiles": "COc1cccc(CN2CCCN(CC(=O)Nc3ccc4c(c3)OCCO4)S2(=O)=O)c1", "Potency": "inconclusive: 100 µM [inhibitor, partial curve, poor fit]"},
      {"smiles": "Cn1c2ccc(CC(=O)O)cc2c2cc(CC(=O)O)ccc21", "Potency": "inconclusive: 100 µM [inhibitor, partial curve, poor fit]"},
      {"smiles": "CN(C)CCCN(C(=O)c1ccco1)c1nc2c(F)cccc2s1", "Potency": "inconclusive: 100 µM [inhibitor, partial curve, poor fit]"},
      {"smiles": "CN(c1ccc(C(=O)N/N=C/c2cccc([N+](=O)[O-])c2)cc1)S(=O)(=O)c1ccccc1", "activity change, negative = inhibition": "inactive: -3.29%"},
      {"smiles": "CCOC(=O)C1CCN(C(=O)/C=C/c2ccc(S(=O)(=O)N3CCOCC3)cc2)CC1", "Potency": "inconclusive: 1 µM [inhibitor, full curve]"},
      {"smiles": "COc1ccc(NC(=O)c2ccc(F)cc2)cc1S(=O)(=O)Nc1cc(C)ccc1Br", "Potency": "inconclusive: 25.1 µM [inhibitor, partial curve, poor fit]"},
      {"smiles": "O=C(CC(NC(=O)c1ccccc1)c1ccccc1)Nc1cccc2ccccc12", "note": "(configuration not stated)", "Potency": "inconclusive: 25.1 µM [inhibitor, partial curve, poor fit]"},
      {"smiles": "O=C(COC(=O)c1ccccn1)NCc1cccs1", "activity change, negative = inhibition": "inactive: 3.91%"},
      {"smiles": "CCOC(=O)c1cc(-c2ccc(C)cc2)n(CCC(=O)Nc2nc3c(C)cccc3s2)c1C", "activity change, negative = inhibition": "inactive: -26.1%"},
      {"smiles": "CC(=O)Cn1nnc2sc3c(c2c1=O)CCC(C(C)(C)C)C3", "note": "(configuration not stated)", "activity change, negative = inhibition": "inactive: -9.79%"},
      {"smiles": "Cc1cc(C)cc(N2CC(O)=C(c3nc4ccccc4c(=O)[nH]3)C2=N)c1", "Potency": "inconclusive: 11.2 µM [inhibitor, full curve, poor fit]"},
      {"smiles": "COc1ccc2c(CC(=O)OCC(=O)Nc3ccc(C)cc3)coc2c1", "Potency": "active: 20 µM"},
      {"smiles": "Cc1c(CC(=O)N2CCN(C(=O)C3COc4ccccc4O3)CC2)c(=O)oc2cc(O)c(Cl)cc12", "note": "(configuration not stated)", "Potency": "inconclusive: 79.4 µM [inhibitor, partial curve, poor fit]"},
      {"smiles": "C=CCNC(=O)[C@@H]1CSC2c3ccc(OC)c(OC)c3C(=O)N21", "note": "(some centres not stated)", "Potency": "inconclusive: 39.8 µM [inhibitor, partial curve, poor fit]"},
      {"smiles": "Cc1cc(C)c(/C=C(\\C#N)S(=O)(=O)c2ccccc2)[nH]1", "Potency": "inconclusive: 89.1 µM [inhibitor, partial curve, poor fit]"},
      {"smiles": "Fc1ccc(OCc2nn3c(Cn4nnc5ccccc54)nnc3s2)cc1", "Potency": "inconclusive: 22.4 µM [inhibitor, partial curve, poor fit]"},
      {"smiles": "O=C(c1ccc2c3n(nc2c1)-c1ccccc1CO3)N1CCCCC1", "activity change, negative = inhibition": "inactive: -7.37%"},
      {"smiles": "O=C(CSc1nc(-c2cccc(Cl)c2)nc2cc(=O)[nH]n12)Nc1ccccc1", "Potency": "active: 50.1 µM"},
      {"smiles": "CCN1/C(=C/c2cc[n+](C)cc2)C=Cc2cc(C)ccc21", "Potency": "inconclusive: 20 µM [inhibitor, partial curve, poor fit]"},
      {"smiles": "O=C(Nc1nc2ccc(Cl)cc2s1)[C@@H]1CCCN1C(=O)c1cccs1", "Potency": "inconclusive: 28.2 µM [inhibitor, partial curve, poor fit]"},
      {"smiles": "COc1ccc(CNC(=O)CN2C(=O)CCSc3ccc(S(=O)(=O)N4CCCC4)cc32)cc1", "activity change, negative = inhibition": "inactive: -21.2%"},
      {"smiles": "CCOC(=O)c1cc(C)nnc1C(=O)OCC", "Potency": "inconclusive: 31.6 µM [inhibitor, partial curve, poor fit]"},
      {"smiles": "Brc1ccc2[nH]c3nc(SCCN4CCOCC4)nnc3c2c1", "Potency": "inconclusive: 28.2 µM [inhibitor, single point]"},
      {"smiles": "Cc1csc(SCC(=O)Nc2sc3c(c2C#N)CCC3)n1", "Potency": "inconclusive: 25.1 µM [inhibitor, partial curve]"},
      {"smiles": "O=C1C=C(N2CCCCC2)c2ccccc2C1=O", "Potency": "active: 20 µM"},
      {"smiles": "O=c1cc(CN2CCN(S(=O)(=O)c3cccc(Cl)c3)CC2)c2ccc(O)cc2o1", "Potency": "inconclusive: 79.4 µM [inhibitor, partial curve, poor fit]"},
      {"smiles": "N#CC(C(=O)Nc1cccc(Cl)c1)=C1Nc2ccccc2N1", "Potency": "inconclusive: 20 µM [inhibitor, partial curve, poor fit]"},
      {"smiles": "O=C(CNC(=O)c1cccc(F)c1)N/N=C/c1cccs1", "Potency": "inconclusive: 56.2 µM [inhibitor, partial curve, poor fit]"},
      {"smiles": "CCOC(=O)c1ccc(N/N=C/c2cc(Br)cc([N+](=O)[O-])c2O)cc1", "Potency": "active: 25.1 µM"},
      {"smiles": "CCN(Cc1ccncc1)C(=O)c1ccco1", "Potency": "inconclusive: 1.78 µM [inhibitor, partial curve, poor fit]"},
      {"smiles": "O=S(=O)(Nc1cccc(-c2ccc(N3CCCCCC3)nn2)c1)c1ccc(F)cc1", "Potency": "inconclusive: 79.4 µM [inhibitor, partial curve, poor fit]"},
      {"smiles": "O=c1c(O[C@@H]2O[C@H](CO)C(O)C2O)c(-c2ccc(O)c(O)c2)oc2cc(O)cc(O)c12", "note": "(some centres not stated)", "Potency": "inconclusive: 35.5 µM [inhibitor, single point]"},
      {"smiles": "O=C(CSc1nc2sc3c(c2c(=O)n1-c1ccccc1)CCCC3)N/N=C/c1ccc(C(=O)O)cc1", "Potency": "inconclusive: 35.5 µM [inhibitor, single point]"},
      {"smiles": "CCOC(=O)CNC(=O)CSc1nccn1Cc1ccco1", "Potency": "inconclusive: 39.8 µM [inhibitor, single point]"},
      {"smiles": "O=C1OC(=O)C2C3CCC(O3)C12", "note": "(configuration not stated)", "activity change, negative = inhibition": "inactive: -0.027% [at 57.1 µM]"},
      {"smiles": "O=C/C(=C\\Nc1ccc(Cl)cn1)c1nc2ccccc2o1", "Potency": "inconclusive: 25.1 µM [inhibitor, single point]"},
      {"smiles": "Cc1ccc(-n2nnc(-c3nsc(NC(=O)c4ccccc4)n3)c2C)cc1", "Potency": "inconclusive: 100 µM [inhibitor, single point]"},
      {"smiles": "CC(C)c1ccc(NC(=O)COC(=O)C2CCCCC2)cc1", "Potency": "inconclusive: 28.2 µM [inhibitor, partial curve, poor fit]"},
      {"smiles": "COc1ccc(CCNC(=O)CSc2ccsc2[N+](=O)[O-])c(OC)c1", "Potency": "active: 44.7 µM"},
      {"smiles": "CCCCn1c(SCC(=O)NCc2ccco2)nc2ccc(N3CCOCC3)cc2c1=O", "Potency": "inconclusive: 89.1 µM [inhibitor, single point]"},
      {"smiles": "O=C(Nc1ccc(C(F)(F)F)cc1)c1cc(S(=O)(=O)NC2CCCCC2)ccc1F", "activity change, negative = inhibition": "inactive: -20.1%"},
      {"smiles": "Cc1ccc(C(=O)Nc2cc([N+](=O)[O-])ccc2F)s1", "Potency": "inconclusive: 39.8 µM [inhibitor, partial curve, poor fit]"},
      {"smiles": "Cn1cccc1CC(=O)N/N=C\\c1c2ccccc2cc2ccccc12", "activity change, negative = inhibition": "inactive: -4.59%"},
      {"smiles": "CN1CCN(C(=O)C(=O)Nc2c3c(nn2-c2ccc(Cl)cc2)CSC3)CC1", "activity change, negative = inhibition": "inactive: -13.8%"},
      {"smiles": "Cc1ccc(C=C2C(=O)c3ccccc3C2=O)o1", "Potency": "active: 12.6 µM"},
      {"smiles": "CCNC(=O)CSc1ncnc2sccc12", "Potency": "active: 22.4 µM"},
      {"smiles": "C=C(C)COc1ccc(-c2[nH]ncc2-c2ccccc2)c(O)c1", "Potency": "inconclusive: 20 µM [inhibitor, partial curve, poor fit]"},
      {"smiles": "O=c1[nH]c(-c2cccnc2)nc2ccccc12", "Potency": "inconclusive: 39.8 µM [inhibitor, partial curve, poor fit]"},
      {"smiles": "CCN(CC)S(=O)(=O)c1ccc2c(c1)N(CC(=O)N1CCN(c3cccc(C)c3C)CC1)C(=O)CO2", "activity change, negative = inhibition": "inactive: -22.3%"},
      {"smiles": "Cc1cc(C(c2ccc(C)o2)c2ccc(C)o2)c(O)c([N+](=O)[O-])c1", "activity change, negative = inhibition": "inactive: -19.4%"},
      {"smiles": "COc1ccc(/C=C/C(=O)Nc2ccc(-n3nncc3-c3ccc(OC)c(OC)c3)cc2)cc1OC", "Potency": "inconclusive: 7.08 µM [inhibitor, partial curve, poor fit]"},
      {"smiles": "Cc1csc(NC(=O)c2cccn2C)n1", "activity change, negative = inhibition": "inactive: -5.7%"},
      {"smiles": "Cc1cc(NC(=O)CSc2ncn(-c3ccccc3)n2)no1", "Potency": "inconclusive: 20 µM [inhibitor, partial curve]"},
      {"smiles": "Cc1c(NC(=O)C2CC=CCC2C(=O)O)c(=O)n(-c2ccccc2)n1C", "note": "(configuration not stated)", "Potency": "inconclusive: 15.8 µM [inhibitor, full curve, poor fit]"},
      {"smiles": "COC(=O)c1c(-c2cccnc2)csc1NC(=O)c1ccc2c(c1)OCO2", "Potency": "inconclusive: 50.1 µM [inhibitor, partial curve]"},
      {"smiles": "CC(C(=O)NC1C(=O)N2C(C(=O)O)=C(CSc3nnnn3C)CSC12)n1cc(Cl)cn1", "note": "(configuration not stated)", "Potency": "active: 35.5 µM"},
      {"smiles": "CN(CCc1ccccc1)C1CCCN(S(=O)(=O)N(C)C)C1", "note": "(configuration not stated)", "Potency": "inconclusive: 39.8 µM [inhibitor, partial curve, poor fit]"},
      {"smiles": "CCN1C(=O)CSC1=Nc1ccc(C(=O)OC)cc1", "Potency": "inconclusive: 1.12 µM [inhibitor, partial curve, poor fit]"},
      {"smiles": "O=C(O)c1ccc(/C=N\\Nc2ccc(S(=O)(=O)N3CCOCC3)cc2[N+](=O)[O-])cc1", "Potency": "inconclusive: 17.8 µM [inhibitor, partial curve, poor fit]"},
      {"smiles": "Cc1cccc(NC(=O)Cn2nnc(C(=O)NCc3cccs3)c2N)c1C", "activity change, negative = inhibition": "inactive: -9.85%"},
      {"smiles": "C=CCn1c(SCC(=O)N2CCOCC2)nc(O)cc1=O", "Potency": "inconclusive: 15.8 µM [inhibitor, full curve, poor fit]"},
      {"smiles": "Cc1cccc(NC(=O)CNC(=O)c2ccc3nc[nH]c3c2)c1C", "Potency": "active: 12.6 µM"},
      {"smiles": "CCc1cc(C(=O)N=Nc2c(O)[nH]c3ccc([N+](=O)[O-])cc23)c2ccccc2n1", "Potency": "active: 50.1 µM"}
    ]}
  ]
}
